Experimental data reported in PubChem BioAssay AID686970 (National Center for Advancing Translational Sciences (NCATS), 2013).
About 6,000 (1.7%) of roughly 360,000 compounds were called active. The shares of active, inactive and inconclusive entries below differ from those in the screen. Calls come from the whole dose curve; as a rule, active = well fitted cell-killing curve with a large enough effect; inconclusive = small, poorly fitted or top-dose-only effect, or effect the other way; inactive = flat fitted curve, though single readings scatter. Potencies of inconclusive entries are left out as doubtful fits.

Assay: qHTS for induction of synthetic lethality in tumor cells producing 2HG: qHTS for the HT-1080-NT fibrosarcoma cell line;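 note: NT is the 2HG producing partner of a matched IDH1 knockdown line; nearly all actives have a fitted effect of over 55% in size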;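 for activity, negative = less viability: 0% = DMSO-treated cells and -100% = media-only wells without cells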
Conditions: HT-1080-NT fibrosarcoma viability, CellTiter-Glo ATP luminescence, 48 h; activity, negative = less viability: at 46.1 µM (top of the series) unless noted
In short: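 Read-out is CellTiter-Glo luminescence after 10 minutes at room temperature, following 48 hours' compound treatment of HT-1080-NT cells (750 cells/well, RPMI, 5% FBS, 37 degrees C).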
Potency is the fitted concentration of half-maximal effect; tags give direction and shape of the fitted curve.

Structure (SMILES) | Potency | activity, negative = less viability
Cc1c(C(=O)OC/C(O)=C(\C#N)c2nc3ccccc3[nH]2)oc2ccccc12 | inconclusive [cytotoxic, single point] | 
CN(Cc1nc(-c2ccc(Cl)cc2)no1)C(=O)c1ccc2c(c1)OCO2 |  | inactive: 0.104%
Cc1ccc(C(=O)Nc2ccc3c(c2)OCCO3)o1 | inconclusive [cytotoxic, single point] | 
CCCCNC(=NCc1cccc(C(F)(F)F)c1)Nc1ccccc1 | inconclusive [cytotoxic, single point] | 
CN(C)CCNc1ncnc2c1ncn2[C@H]1CN(Cc2ccc(-c3ccccc3)cc2)C[C@@H](CO)O1 | active: 6.51 µM | 
NS(=O)(=O)c1ccc(-c2ccc(/C=C3\SC(=O)NC3=O)o2)cc1 | inconclusive [cytotoxic, partial curve] | 
CC(=O)NC1=C(N(C)C2CCS(=O)(=O)C2)C(=O)c2ccccc2C1=O (stereo unspecified) | inconclusive [cytotoxic, single point] | 
O=C(CCCN1C(=O)NC2(CCCC2)C1=O)Nc1ccc(Cl)c(S(=O)(=O)N2CCOCC2)c1 |  | inactive: 12.5%
CC(=O)Oc1cc2oc(=O)c3c(c2cc1Cl)CCC3 |  | inconclusive: 32%
CCCc1cc(O)c2c(C)cc(=O)oc2c1 | inconclusive [cytotoxic, single point] | 
COc1ccc(C(=O)NCCC2=CCCCC2)cc1 |  | inactive: -2.45%
CC(C)C(=O)Nc1cccc(-c2csc(-c3ccccc3)n2)c1 | inconclusive [cytotoxic, single point] | 
OC[C@@H]1CN(Cc2ccc(-c3ccccc3)cc2)C[C@H](n2cnc3c(NCc4ccncc4)ncnc32)O1 |  | inconclusive: -45.4%
O=c1c2ccccc2nc(SCc2nc3ccccc3s2)n1CCCO | inconclusive [cytotoxic, partial curve] | 
Cc1ccc(S(=O)(=O)/C(=C/Cl)NC(=O)c2ccccc2)cc1 | inconclusive [cytotoxic, partial curve] | 
CC(C)C[C@H](NC(=O)OC(C)(C)C)C(=O)N[C@@H](CO)[C@H](O)[C@@H]1C[C@@H]1C(=O)N1CCCC1 |  | inactive: 6.39%
CCc1nc2ccc(C(=O)NCCc3c[nH]c4ccccc34)cn2c1N(C=O)CCC(C)C | inconclusive [cytotoxic, full curve] | 
C/C=C\C=C/C(=O)Nc1cccc(C2=NOC3(C2)C[C@H](C(N)=O)N(C(=O)CC)C3)c1 (stereo partly specified) | inconclusive [rising, partial curve] | 
O=C(Nc1ccc2c(c1)OCCO2)C1CCN(C(=O)c2ccccc2)CC1 |  | inactive: -0.0577%
COc1ccccc1OCC(=O)Nc1cccc(-c2nnc(-c3ccco3)o2)c1 |  | inactive: -4.6%
COC(=O)c1ccc(Nc2nc(C)cc(=O)[nH]2)cc1 |  | inactive: 12%
O=C(COc1ccc(F)cc1)N(Cc1ccco1)C1CCS(=O)(=O)C1 (stereo unspecified) |  | inactive: 3.33%
COc1cccc(OCCN2CCN(c3ncnc4c3cnn4-c3ccccc3)CC2)c1 | inconclusive [cytotoxic, single point] | 
OCCN1CCN(CC(O)COc2ccc3ccccc3c2)CC1 (stereo unspecified) | inconclusive [cytotoxic, single point] | 

Structure (SMILES) | Potency | activity, negative = less viability
COc1ccc(NC(=O)c2ccc(-n3cncn3)c([N+](=O)[O-])c2)cc1 | inconclusive [rising, partial curve] | 
O=C(OCC1OC(n2cnc3c(N(C(=O)c4ccccc4)C(=O)c4ccccc4)ncnc32)C(O)C1F)c1ccccc1 (stereo unspecified) | inconclusive [cytotoxic, single point] | 
COc1cccc(/C=N/NC(=O)c2[nH]nc3c2CCc2ccccc2-3)c1 | active: 3.66 µM | 
CCN(CC(=O)Nc1ccc2c(c1)OC(F)(F)O2)Cc1nc2ccccc2c(=O)[nH]1 | inconclusive [cytotoxic, single point] | 
COc1cc(/C=N/NC(=O)c2ccc(NC(=O)C3CCCCC3)cc2)ccc1O | inconclusive [cytotoxic, single point] | 
CCC1(c2ccc(F)cc2)NC(=O)N(CC(=O)Nc2ccc(N3CCCCC3)cc2)C1=O (stereo unspecified) |  | inactive: -6.78%
COc1cccc(-c2ccc(NC(=O)C3CCCN(CCCn4nc(C)cc4C)C3)cc2)c1 (stereo unspecified) | inconclusive [cytotoxic, single point] | 
COc1cccc(NC(=O)N2CCCC2C(=O)NCc2ccccc2F)c1 (stereo unspecified) |  | inactive: 1.22%
Cc1ccc(C(=O)NCCc2csc(C)n2)cc1 | inconclusive [rising, single point] | 
O=C(Nc1ccccc1-c1ccccc1)c1ccc(Cl)c([N+](=O)[O-])c1 | inconclusive [cytotoxic, single point] | 
COc1cccc(CNC(=O)COc2ccc(C(=O)c3ccccc3)cc2)c1 | inconclusive [cytotoxic, single point] | 
CCn1c(COc2c(C)cccc2C)nnc1SCC(=O)N1CCN(c2ccccc2)CC1 |  | inactive: -9.83%
O=[N+]([O-])c1ccc(C=NN2CCOCC2)s1 |  | inactive: -3.61%
COCC(C)n1c(SCc2cc(=O)n3cc(C)ccc3n2)nc2ccccc2c1=O (stereo unspecified) |  | inactive: -25.4%
Nc1nc2ncccc2cc1C(=O)NC1CCCCC1 |  | inactive: 7.97%
O=C(Nc1ccc(C(F)(F)F)cc1)c1ccc(NC(=O)C2CCCO2)cc1 (stereo unspecified) | inconclusive [cytotoxic, partial curve] | 
Cc1ccc(C(O)c2ncc(-c3ccc(C(F)(F)F)cc3)[nH]2)cc1F (stereo unspecified) | inconclusive [cytotoxic, single point] | 
Cc1ccc(NC(=S)NNC(=O)CCn2cc(C)cn2)cc1 | active: 2.82 µM | 
O=C(Nc1ccc(-c2nc3ccccc3o2)cc1)c1ccc(N2CCOCC2)c([N+](=O)[O-])c1 |  | inactive: -22.6%
CC(=O)Oc1ccc(-c2cccc(C(=O)OCC(=O)Nc3ccccc3Oc3ccccc3)c2)cc1 | inconclusive [cytotoxic, single point] | 
COc1ccc(Cl)cc1C(=O)NNC(=O)c1cccc(S(=O)(=O)N(C)C)c1 | inconclusive [rising, single point] | 
COc1cc(-c2ccc3oc(-c4cccc(C)c4)c(C#CC4(O)CCCCC4)c3c2)cc(OC)c1OC |  | inactive: -10.4%
CCN(CC)CCCC(C)NC(=O)c1c(NC(=O)c2ccccc2)sc2c1CCCC2 (stereo unspecified) | inconclusive [cytotoxic, single point] | 
O=C(NCc1ccc(F)cc1)c1cc(C2CCCCN2C(=O)c2ccccn2)on1 (stereo unspecified) | inconclusive [rising, single point] | 

Structure (SMILES) | Potency | activity, negative = less viability
COc1ccc(Oc2ccc(/C=N/NC(=O)c3cccnc3)cc2[N+](=O)[O-])cc1 | inconclusive [cytotoxic, partial curve] | 
Cc1ccc(CNC(=O)Cn2cnc3c(NCc4ccccc4)ncnc32)o1 | inconclusive [cytotoxic, partial curve] | 
Cc1cccc(NC(=O)c2ccc3c(c2)C(=O)N(c2ccccc2C)C3=O)n1 |  | inactive: -4.36%
Cc1ccc(F)cc1NS(=O)(=O)c1ccc(Cl)s1 |  | inactive: -3.04%
CN(C)CCCN1C(=O)c2cccc3c([N+](=O)[O-])ccc(c23)C1=O | inconclusive [cytotoxic, single point] | 
CC(C)(C)C1CCC2(CC1)C(C#N)=C(SCC(=O)NC1CCCCC1)NC(=O)C2C#N (stereo unspecified) | inconclusive [cytotoxic, single point] | 
O=C(CCn1cnc(-c2ccccc2)c1-c1ccccc1)N/N=C/c1ccc(O)cc1 | inconclusive [cytotoxic, single point] | 
Cc1ccc2c(c1)c1c3n2CCN(C(=O)CN2CCN(C)CC2)C3CCC1 (stereo unspecified) | active: 23.1 µM | 
CS(=O)(=O)c1nc(S(=O)(=O)c2ccc(Cl)cc2)c(NCCN2CCOCC2)s1 | inconclusive [rising, single point] | 
CCCN(CCC)CC(O)Cn1cc(/C=C/C(=O)c2ccccc2)c2ccccc21 (stereo unspecified) | inconclusive [cytotoxic, single point] | 
COC(=O)c1cc(-c2ccc(C)cc2)n[nH]1 |  | inactive: 10.9%
COc1ccc(Nc2c(C3CC3)nc3nc(C)cc(C)n23)cc1 |  | inactive: 6.81%
COc1ccc(C2(C)NC(=O)NC2=O)cc1OC (stereo unspecified) | inconclusive [rising, single point] | 
COCCCNc1ccn2nc(-c3ccc(CC(C)C)cc3)cc2n1 | inconclusive [cytotoxic, partial curve, poor fit] | 
C/C(=N/N=C/c1ccc(N(C)C)cc1)c1ccccc1 | inconclusive [cytotoxic, partial curve] | 
COc1cccc(/C=C/C(=O)c2ccc3c(c2)OCCO3)c1OC | inconclusive [cytotoxic, single point] | 
CC1(C(=O)NCc2cccc3ccccc23)CCN1Cc1ccc(-c2ccccc2)o1 (stereo unspecified) | inconclusive [cytotoxic, single point] | 
CCOC(=O)c1cc(-c2ccccc2)nc2nc(N(CC)CC)sc12 | inconclusive [cytotoxic, single point] | 
CCN(CC)C(=O)CSc1nnc2nnc3cc(OC)ccc3n12 | active: 13 µM | 
CC(=O)Nc1ccc(OCC(O)CN2CCN(S(=O)(=O)c3ccc(NC(C)=O)cc3)CC2)cc1 (stereo unspecified) |  | inactive: 0.0773%
Cc1cc(C(=O)NNc2ccc(C)c(C)c2)no1 | inconclusive [cytotoxic, partial curve] | 
Nc1nnc(SCC(=O)OCC(=O)c2ccccc2Br)s1 |  | inactive: 9.7%
COC(=O)/C(=C\Nc1ccc(Cl)cc1Cl)NC(=O)c1ccc(OC)cc1 | active: 3.26 µM | 
